Results reported in PubChem BioAssay AID588855 (National Center for Advancing Translational Sciences (NCATS), 2011).
Where “and” joins values, the source holds several entries; their conditions need not be identical. Equal entries are not always repeated. In all, about 410,000 compounds went through this assay and about 5,000 (1.2%) were called active. Inconclusive results, whose numbers are uncertain, are shown with a selection of clear calls. Calls follow the shape of the dose curve; as a rule, active = well fitted inhibition curve with a large enough effect; inconclusive = small, poorly fitted or top-dose-only effect; inactive = no such curve, though single readings can be large or run the other way. Potencies of inconclusive entries are doubtful fits and often do not repeat.

Assay: qHTS for Inhibitors of TGF-b; also: nearly all actives have a fitted effect of over 65% in size
Conditions: HepG2 CAGA-GFP TGF-b/SMAD3 reporter, GFP fluorescence, 18 h, TGF-beta stimulated, 500 pg/mL final; series mostly up to 46.1 µM
How it was run: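 Inhibition was scored as loss of TGF-beta-induced (500 pg/mL final, 18 hours, 37 degrees C) GFP in HEPG2 cells carrying a CAGA-GFP reporter, in DMEM with 1% FBS. Well GFP was summed per cell; Activity was normalised to unstimulated and stimulated DMSO wells, then concentration-response fitting.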
Potency is read from the fitted curve at half-maximal effect; tags tell the direction and shape of the fitted curve.

Q: Which Potency does the source give for `CCN(CC)c1ccc(/C=N/NC(=O)Nc2ccccc2)cc1` here?
A: inconclusive: 22.4 µM [inhibitor, single point]

Q: With `COc1ccc(-c2c(C3C4C=CCC(C)C4C(=O)N3Cc3ccccc3)ccc3ccccc23)cc1` (stereo unspecified) as the molecule, how does the Potency read?
A: inactive

Q: Which Potency does the source give for `CC(C)N(C(=O)CSc1nnc(Cn2nnc3ccccc32)n1C)C(C)C` here?
A: inconclusive: 5.01 µM [inhibitor, full curve, poor fit]

Q: For `O=C1C=C(c2ccc3ccccc3c2)C[C@@H](c2ccc(Cl)cc2)C1`, which Potency is on record?
A: inconclusive: 0.126 µM [inhibitor, full curve, poor fit]

Q: With `CC(C)CCn1c(SC(C)C(=O)NC2CC2)nc2ccccc2c1=O` (stereo unspecified) as the molecule, how does the Potency read?
A: inconclusive: 5.62 µM [inhibitor, single point]

Q: For `Cc1ccsc1/C=N/NC(=S)NCc1ccccc1`, which Potency is on record?
A: inactive

Q: Which Potency does the source give for `Cc1noc(C)c1C(=O)Nc1ccccn1` here?
A: inconclusive: 0.1 µM [inhibitor, full curve, poor fit]

Q: For `Cc1cc(OC(F)F)ccc1NC(=S)NCCc1ccccc1`, which Potency is on record?
A: inactive

Q: For `O=C(CCNC(=O)c1ccc(Cl)cc1)NC1CCCc2ccccc21` (stereo unspecified), which Potency is on record?
A: inconclusive: 11.2 µM [inhibitor, partial curve, poor fit]

Q: Which Potency does the source give for `Cc1sc2ccccc2[n+]1CCc1ccccc1` here?
A: inconclusive: 35.5 µM [inhibitor, single point]

Q: With `Cc1ccc(N2CCN(C(=O)CCc3nc4ccccc4[nH]3)CC2)c(C)c1` as the molecule, how does the Potency read?
A: inconclusive: 35.5 µM [inhibitor, single point]

Q: For `C/C(=C\c1ccccc1)C(=O)NCCN1CCOCC1`, which Potency is on record?
A: inconclusive: 8.91 µM [inhibitor, partial curve, poor fit]

Q: Which Potency does the source give for `COc1ccc(C(=O)Nc2nnc(S(=O)(=O)N3CCCc4ccccc43)s2)cc1` here?
A: inconclusive: 35.5 µM [inhibitor, single point]

Q: For `CCOc1ccccc1-n1nnc(-c2nc(-c3ccccc3C)no2)c1C`, which Potency is on record?
A: inactive

Q: With `COc1ccc(C(=O)N2CCN(c3c(C)cccc3C)CC2)cc1OC` as the molecule, how does the Potency read?
A: inactive

Q: For `CCOC(=O)c1cc2c(=O)n3cccc(C)c3nc2n(Cc2ccco2)c1=NC(=O)c1cccnc1`, which Potency is on record?
A: inactive

Q: With `Cc1cc(C(=O)N2CCN(Cc3ccc4c(c3)OCO4)CC2)cs1` as the molecule, how does the Potency read?
A: inactive

Q: For `CCCCNc1nc2c(c(=O)n(C)c(=O)n2C)n1CC(O)COc1ccccc1C` (stereo unspecified), which Potency is on record?
A: inconclusive: 35.5 µM [inhibitor, single point]

Q: With `Cc1ccc2c(c1)N(S(=O)(=O)c1cc(-c3onc(C)c3C)ccc1C)CCO2` as the molecule, how does the Potency read?
A: inconclusive: 12.6 µM [inhibitor, partial curve, poor fit] and inconclusive: 20 µM [inhibitor, single point]

Q: Which Potency does the source give for `O=C(CN1C(=O)COc2ccc(S(=O)(=O)N3CCCC3)cc21)N1CCN(c2ccc(Cl)cc2)CC1` here?
A: inconclusive: 35.5 µM [inhibitor, single point]

Q: Which Potency does the source give for `O=C(CNc1cccc([N+](=O)[O-])c1)N/N=C/c1ccc([N+](=O)[O-])o1` here?
A: active: 7.08 µM

Q: For `COc1cccc(-n2cc(C(=O)OCc3ccc(F)c(F)c3)c3ccccc3c2=O)c1`, which Potency is on record?
A: inactive

Q: With `CCOC(=O)c1cc(-c2csc(Nc3ccccc3Cl)n2)on1` as the molecule, how does the Potency read?
A: inconclusive: 11.2 µM [inhibitor, partial curve]

Q: Which Potency does the source give for `COc1cccc(C(C)(O)c2nc(-c3ccc4ccccc4c3)cs2)c1` (stereo unspecified) here?
A: inconclusive: 10 µM [inhibitor, partial curve]

Q: With `O=C1c2[nH]nc(-c3ccccc3O)c2C(c2cccc(O)c2)N1Cc1ccncc1` (stereo unspecified) as the molecule, how does the Potency read?
A: inconclusive: 6.31 µM [inhibitor, single point]

Q: Which Potency does the source give for `O=C(Cn1cc(C(=O)c2ccncc2)c(=O)c2cc(F)ccc21)Nc1ccc(Cl)cc1` here?
A: inconclusive: 35.5 µM [inhibitor, single point]

Q: With `COc1ccc(OC)c(CCNC(=O)c2ccc(CS(=O)Cc3ccc(Cl)cc3)o2)c1` (stereo unspecified) as the molecule, how does the Potency read?
A: inactive

Q: Which Potency does the source give for `CCOC(=O)C1=CCN(S(=O)(=O)c2ccc(Br)cc2)C1c1ccccc1` (stereo unspecified) here?
A: inconclusive: 35.5 µM [inhibitor, single point]

Q: With `COc1cccc(-c2nc(CS(=O)(=O)CC(=O)NC3CCCCCC3)c(C)o2)c1` as the molecule, how does the Potency read?
A: inconclusive: 35.5 µM [inhibitor, single point]

Q: Which Potency does the source give for `CC(CN1CCOCC1)OC(=O)c1cccs1` (stereo unspecified) here?
A: inactive

Q: Which Potency does the source give for `COc1ccccc1CC(=O)Nc1ccc([N+](=O)[O-])cc1O` here?
A: inconclusive: 17.8 µM [inhibitor, single point]

Q: For `CCOCCn1ccc2c(OCC(=O)NCc3ccc(C)cc3)cccc2c1=O`, which Potency is on record?
A: inactive

Q: Which Potency does the source give for `O=c1[nH]c2ccccc2n1C1CCCCC1` here?
A: inactive

Q: Which Potency does the source give for `CC(OC(=O)Cc1ccccc1[N+](=O)[O-])C(=O)NC(=O)NC1CCCCC1` (stereo unspecified) here?
A: inconclusive: 6.31 µM [inhibitor, single point]

Q: Which Potency does the source give for `Cc1cccc(N2CCN(C(=O)c3cc(S(=O)(=O)N4CCCC4)cn3C)CC2)c1C` here?
A: inconclusive: 31.6 µM [inhibitor, single point]

Q: Which Potency does the source give for `CCOC(=O)c1c(NC(=O)CSc2cn(CCNC(=O)c3ccc(OC)c(OC)c3)c3ccccc23)sc2c1CCCC2` here?
A: inconclusive: 3.16 µM [inhibitor, partial curve, poor fit]

Q: With `Cc1ccc(CNC(=O)CCCn2nc(C)c3c(C)n(-c4ccccc4)nc3c2=O)cc1` as the molecule, how does the Potency read?
A: inconclusive: 15.8 µM [inhibitor, partial curve, poor fit]

Q: With `O=C(C1CCCCC1)N1C[C@@H](O)[C@H](n2cc(C3CC3)nn2)C[C@@H]1c1ccccc1` as the molecule, how does the Potency read?
A: inactive

Q: For `Cc1ccnc(NCc2ccccc2O)c1`, which Potency is on record?
A: inactive

Q: With `C[n+]1ccccc1/C=N/O` as the molecule, how does the Potency read?
A: inactive

Q: With `CCOc1ccc(N2C(=O)/C(=C/c3cccs3)N(CC(=O)OC)C2=S)cc1` as the molecule, how does the Potency read?
A: inconclusive: 0.708 µM [inhibitor, partial curve, poor fit]

Q: With `CCC(C)(C)C1CCC2(CC1)NC(=O)N(CC(=O)N1CCN(c3ccccc3OC)CC1)C2=O` (stereo unspecified) as the molecule, how does the Potency read?
A: inactive

Q: With `O=C(Nc1ccccc1)N(Cc1cccs1)c1ccc(F)cc1` as the molecule, how does the Potency read?
A: inactive

Q: For `Cc1ccc(NC(=O)c2cc(S(=O)(=O)N3CCc4ccccc43)cn2C)cc1`, which Potency is on record?
A: inactive

Q: Which Potency does the source give for `Cc1ccc(NC(=O)CCC(=O)NNC(=O)c2ccccc2)c(C)c1` here?
A: inactive

Q: For `Cc1ccc(S(=O)(=O)N2CC(O)CC2C(=O)OCC(=O)c2ccccc2Cl)cc1C` (stereo unspecified), which Potency is on record?
A: inconclusive: 25.1 µM [inhibitor, partial curve, poor fit]

Q: For `COc1ccc(CC(=O)N(Cc2ccccc2)c2ccc(C)cc2)cc1OC`, which Potency is on record?
A: inactive

Q: With `O=C1CCC/C1=c1\s/c(=C\c2cccnc2)c(=O)n1-c1ccccc1` as the molecule, how does the Potency read?
A: inactive

Q: For `CCCc1cc(=O)n2[nH]c(NC(=O)c3ccccc3Cl)nc2n1`, which Potency is on record?
A: inactive

Q: Which Potency does the source give for `Cc1ccc(S(=O)(=O)N2CCCCC2)cc1NC(=O)c1cnccn1` here?
A: inconclusive: 35.5 µM [inhibitor, single point]

Q: Which Potency does the source give for `Cc1ccc2onc(CC(=O)Nc3cccc(C(F)(F)F)c3)c2c1` here?
A: inconclusive: 15.8 µM [inhibitor, single point]

Q: For `Cc1c(Cl)cccc1N=c1c([N+](=O)[O-])nn(-c2ccccc2)n1O`, which Potency is on record?
A: inconclusive: 17.8 µM [inhibitor, partial curve, poor fit]

Q: Which Potency does the source give for `CCc1ccc(NC(=O)C2=CC(c3ccc(OC)c(OC)c3)=NS(=O)(=O)N2C)cc1` here?
A: inconclusive: 17.8 µM [inhibitor, partial curve, poor fit]

Q: With `Cc1ccccc1-n1ncc2c([N+](=O)[O-])cc([N+](=O)[O-])cc21` as the molecule, how does the Potency read?
A: inconclusive: 11.2 µM [inhibitor, partial curve, poor fit]

Q: For `Cc1cc(C)cc(OCC(=O)NC(Cc2c[nH]c3ccccc23)C(=O)O)c1` (stereo unspecified), which Potency is on record?
A: inactive

Q: For `CCOc1ccc(S(=O)(=O)Nc2ccc3oc(C)c(C(=O)OC(C)C)c3c2)cc1`, which Potency is on record?
A: inconclusive: 35.5 µM [inhibitor, single point]

Q: For `Cc1cccc(OCC(=O)Nc2c(C(=O)N3CCN(c4ccccc4F)CC3)oc3ccccc23)c1`, which Potency is on record?
A: inconclusive: 35.5 µM [inhibitor, single point]

Q: With `CCOc1cc(N)c(Cl)cc1C(=O)NCC1CN(Cc2ccc(F)cc2)CCO1` (stereo unspecified) as the molecule, how does the Potency read?
A: inactive

Q: For `Cc1cc([N+](=O)[O-])cc(C)c1OCC(=O)N/N=C/c1ccc(OC(=O)c2ccccc2Br)cc1`, which Potency is on record?
A: inconclusive: 25.1 µM [inhibitor, single point]

Q: For `Cc1nnc(N/N=C/c2ccccc2F)n1N`, which Potency is on record?
A: inactive

Q: With `CCS(=O)(=O)NCC(c1cccnc1)N1CCN(c2ccc(OC)cc2)CC1` (stereo unspecified) as the molecule, how does the Potency read?
A: inactive

Q: For `Cc1ccc(S(=O)(=O)Nc2c(NC3CCCCC3)c3ccccc3oc2=O)c(C)c1`, which Potency is on record?
A: inconclusive: 22.4 µM [inhibitor, single point]

Q: Which Potency does the source give for `O=S(=O)(NCc1csc(-c2cccs2)n1)c1cccc(C(F)(F)F)c1` here?
A: active: 15.8 µM

Q: With `COC(=O)c1ccc(NC(=O)CC2Nc3cc(C)c(C)cc3NC2=O)cc1` (stereo unspecified) as the molecule, how does the Potency read?
A: inconclusive: 35.5 µM [inhibitor, single point]

Q: With `COc1ccccc1NCc1cccn1-c1nnc(N2CCCCCC2)s1` as the molecule, how does the Potency read?
A: inconclusive: 8.91 µM [inhibitor, partial curve]

Q: Which Potency does the source give for `O=C1C(Cl)=C(Nc2ccc3cn[nH]c3c2)C(=O)c2ccccc21` here?
A: active: 0.631 µM

Q: Which Potency does the source give for `COc1ccc(C(=O)N2CCN(c3nc(C4CC4)nc4sc(C)c(C)c34)CC2)cc1` here?
A: inconclusive: 22.4 µM [inhibitor, single point]

Q: For `CCCc1nnc(SCc2ccc(OC)cc2)n1N`, which Potency is on record?
A: inactive

Q: Which Potency does the source give for `COc1ccc(C(N)c2csc(NC(=O)Nc3ccccc3C(C)(C)C)n2)cc1` (stereo unspecified) here?
A: inconclusive: 35.5 µM [inhibitor, single point]

Q: Which Potency does the source give for `C/C(Cl)=C/Cc1c(C)[nH]c2ccc(C)cc2c1=O` here?
A: inactive

Q: Which Potency does the source give for `COc1cccc(N2CCc3c(C)nc4ccc(Cl)cc4c32)c1` here?
A: inconclusive: 35.5 µM [inhibitor, single point]
